# Results reported in the supplement of paper PMC9135407.
# “And” between values parts separate entries of the source, which are not always exact repeats. Identical values can stand only once. Counter-ions that a name gives are not always drawn. The campaign covered roughly 5,800 compounds. About 620 (11%) showed activity.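 How the source made its calls: active = score above a cut-off or among the top three wells of a plate; in these data no inactive exceeds 0.85.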 This is a selection; strong and weak results do not stand in their true shares.
# Test system: primary human hepatic stellate cells (donor 1)
# Test: scaled lipid accumulation score (0 = DMSO-like, 1 = nortriptyline-like); higher = stronger HSC inactivation (lipid re-accumulation), active = hit call of the paper
# Details: 48 h
# [1] = library stock concentration: 10 mM
# [2] = library stock concentration: 80 uM
# [3] = library stock concentration: 400 uM
# [4] = library stock concentration: 2 mM
# [5] = library stock concentration: 3.33 mM
# [6] = library stock concentration: 1 mM
smiles,measurement,setting,value
CNCCCC12CCC(c3ccccc31)c1ccccc12.Cl [Maprotiline hydrochloride],scaled lipid accumulation score,[1],active: 1.59
CC(C)Cn1c(=O)n(C)c(=O)c2nc[nH]c21 [Isobutylmethylxanthine],scaled lipid accumulation score,library stock concentration: 9 mM,inactive: ≤ 0
Cc1cccc(C)c1NC(=O)C[N+](C)(C)C,scaled lipid accumulation score,[1],inactive: 0.024
Cc1nc2ccc(-n3ncc(C(=O)c4cc5ccccc5[nH]4)c3N)cc2[nH]1,scaled lipid accumulation score,[1],active: 0.907
CC(C)(C)NCC(O)COc1cccc2c1CC(O)C(O)C2 (configuration not stated) [Nadolol],scaled lipid accumulation score,,inactive: ≤ 0
same,scaled lipid accumulation score,[1],inactive: 0.071
C[C@H](CCC(=O)NCCS(=O)(=O)O)[C@H]1CC[C@H]2[C@@H]3[C@H](O)C[C@@H]4C[C@H](O)CC[C@]4(C)[C@H]3C[C@H](O)[C@]12C [Sodium Taurocholate hydrate],scaled lipid accumulation score,[1],inactive: ≤ 0
Cc1ccc(S(=O)(=O)/C=C/C#N)cc1,scaled lipid accumulation score,[2],inactive: ≤ -0.001
same,scaled lipid accumulation score,[3],inactive: ≤ -0.001
same,scaled lipid accumulation score,[4],inactive: 0.813
same,scaled lipid accumulation score,[5],inactive: 0.807
same,scaled lipid accumulation score,[1],inactive: 0.729 and inactive: 0.437
same,scaled lipid accumulation score,library stock concentration: 24.1 mM,inactive: 0.648
CC(C)(C)OC(=O)Nc1ccc(-c2cc(C(=O)NCCCCCCC(=O)NO)no2)cc1,scaled lipid accumulation score,[6],inactive: ≤ 0
Nc1nc(Nc2ccccc2)nc2c1ncn2[C@@H]1O[C@H](CO)[C@@H](O)[C@H]1O,scaled lipid accumulation score,[1],inactive: ≤ 0
CC1(C)CC(=O)C(C2C3=C(CC(C)(C)CC3=O)Oc3ccccc32)C(=O)C1 (configuration not stated),scaled lipid accumulation score,[1],inactive: ≤ -0.002
Fc1ccc([C@@H]2CCNC[C@H]2COc2ccc3c(c2)OCO3)cc1.O=C(O)/C=C\C(=O)O [Paroxetine maleate],scaled lipid accumulation score,[1],active: 1.14
CCCCC/C=C\C/C=C\CCCCCCCC(=O)OCC(O)CO (configuration not stated) [1-Linoleoyl Glycerol],scaled lipid accumulation score,[6],inactive: ≤ 0
CN1CC(=O)N=C1NC(=O)Nc1cccc(Cl)c1 [Fenobam],scaled lipid accumulation score,[1],inactive: 0.352 and inactive: ≤ -0.001
CC[C@H](C)C(=O)O[C@H]1C[C@H](O)C=C2C=C[C@H](C)[C@H](CC[C@@H](O)C[C@@H](O)CC(=O)O)[C@H]21 [Pravastatin sodium salt],scaled lipid accumulation score,[1],inactive: 0.04
CC[C@H](C)C(=O)O[C@H]1C[C@H](O)C=C2C=C[C@H](C)[C@H](CC[C@@H](O)C[C@@H](O)CC(=O)O)[C@H]21 [PRAVASTATIN Sodium],scaled lipid accumulation score,library stock concentration: 9.5 mM,inactive: ≤ 0
CC[C@H](C)C(=O)O[C@H]1C[C@H](O)C=C2C=C[C@H](C)[C@H](CC[C@@H](O)C[C@@H](O)CC(=O)O)[C@H]21 [Pravastatin sodium],scaled lipid accumulation score,[5],inactive: ≤ 0
same,scaled lipid accumulation score,library stock concentration: 4.5 mM,inactive: ≤ 0
same,scaled lipid accumulation score,[1],inactive: ≤ 0 and inactive: ≤ -0.027
CC1=C(C(=O)O)N2C(=O)[C@@H](NC(=O)[C@H](N)c3ccccc3)[C@H]2SC1 [Cephalexin monohydrate],scaled lipid accumulation score,,inactive: ≤ 0
same,scaled lipid accumulation score,[1],inactive: 0.196
CC1=C(C(=O)O)N2C(=O)[C@@H](NC(=O)[C@H](N)c3ccccc3)[C@H]2SC1 [Cephalexin hydrate],scaled lipid accumulation score,[1],inactive: 0.279
CC1=C(C(=O)O)N2C(=O)[C@@H](NC(=O)[C@H](N)c3ccccc3)[C@H]2SC1 [Cephalexin],scaled lipid accumulation score,[5],inactive: 0.022
same,scaled lipid accumulation score,library stock concentration: 5.8 mM,inactive: ≤ 0
same,scaled lipid accumulation score,[1],inactive: ≤ 0
CCCc1c(OCCCOc2ccc(OCC(=O)O)cc2)ccc(C(C)=O)c1O,scaled lipid accumulation score,[1],inactive: 0.041 and inactive: ≤ -0.006
CCCOc1ccc(C=C2SC(=O)NC2=O)cc1,scaled lipid accumulation score,[2],inactive: ≤ -0.001
same,scaled lipid accumulation score,[3],inactive: ≤ -0.001
same,scaled lipid accumulation score,[4],inactive: ≤ -0.001
same,scaled lipid accumulation score,[1],inactive: ≤ -0.001
CO[C@H]1C=CC=C(C)C(=O)NC2=CC(=O)C(NCCN(C)C)=C(C[C@@H](C)C[C@H](OC)[C@H](O)[C@@H](C)C=C(C)[C@@H]1OC(N)=O)C2=O.Cl [17-DMAG (Alvespimycin) HCl],scaled lipid accumulation score,[1],active: 1.24
CC/C=C\C/C=C\C/C=C\CCCCCCCC(=O)O [.alpha.-Linolenic Acid],scaled lipid accumulation score,[6],inactive: 0.009
CC/C=C\C/C=C\C/C=C\CCCCCCCC(=O)O [Linolenic acid (18:3 n-3)],scaled lipid accumulation score,[6],inactive: ≤ -0.021
CCCC(=O)Nc1cccc(NC(=O)c2ccccc2Br)c1,scaled lipid accumulation score,[5],inactive: ≤ 0
same,scaled lipid accumulation score,[1],inactive: 0.024
C#CC1(O)CC[C@H]2[C@@H]3CCC4=CC(=O)CC[C@@H]4[C@H]3CC[C@@]21CC (some centres not stated) [Norgestrel],scaled lipid accumulation score,[6],inactive: 0.037
same,scaled lipid accumulation score,[1],inactive: 0.03
CO[C@H]1C[C@@H]2CC[C@@H](C)[C@@](O)(O2)C(=O)C(=O)N2CCCC[C@H]2C(=O)O[C@H]([C@H](C)C[C@@H]2CC[C@H](n3cnnn3)[C@H](OC)C2)CC(=O)[C@H](C)/C=C(\C)[C@@H](O)[C@@H](OC)C(=O)[C@H](C)C[C@H](C)/C=C/C=C/C=C/1C [Zotarolimus(ABT-578)],scaled lipid accumulation score,[5],inactive: 0.109
same,scaled lipid accumulation score,[1],inactive: ≤ 0
O=C(O)c1ccc(O)c2ncccc12,scaled lipid accumulation score,[5],inactive: 0.005
same,scaled lipid accumulation score,[1],inactive: ≤ 0
O=C1c2ccccc2CCC1CNCCc1ccc(O)cc1 (configuration not stated) [HEAT hydrochloride],scaled lipid accumulation score,[1],inactive: 0.394
COCCCC/C(=N\OCCN)c1ccc(C(F)(F)F)cc1.O=C(O)/C=C\C(=O)O [Fluvoxamine maleate],scaled lipid accumulation score,[1],active: 1.13
Nc1nnc(-c2cccc(Cl)c2Cl)c(N)n1 [Lamotrigine],scaled lipid accumulation score,[5],inactive: ≤ 0
same,scaled lipid accumulation score,library stock concentration: 7.8 mM,inactive: ≤ -0.006 and inactive: ≤ 0
same,scaled lipid accumulation score,[1],inactive: ≤ 0 and inactive: ≤ -0.055
CCCCCCCCc1ccc(CCC(N)(CO)CO)cc1.Cl [Fingolimod (FTY720) HCl],scaled lipid accumulation score,[5],active: 1.17
Cc1cc(Nc2cc(CN3CCOCC3)c3nc(C)c(Cc4ccc(Cl)cc4F)n3n2)n[nH]1,scaled lipid accumulation score,[5],inactive: ≤ 0
same,scaled lipid accumulation score,[1],inactive: 0.474
"Brc1ccc(C2CN3CCSC3=N2)cc1 (single isomer, unassigned; (-)) [(-)-p-Bromotetramisole Oxalate]",scaled lipid accumulation score,[5],inactive: ≤ -0.009
same,scaled lipid accumulation score,[1],inactive: 0.192
O=C(O)CCC/C=C\C[C@H]1[C@@H](O)CC(=O)[C@@H]1/C=C/[C@@H](O)COc1cccc(C(F)(F)F)c1 [11-keto Fluprostenol],scaled lipid accumulation score,[6],inactive: ≤ 0
